Source: paper PMC12040169 (PLOS Biology, 2025)
Some of the results follow.

test system: T1, C. trachomatis L2/434/Bu expressing GFP (CTL2-GFP); design: species or system HeLa; C. trachomatis total inclusion area by high-content imaging, normalised to DMSO; settings: total inclusion area; 28.5 h, 10 µM; inhibitor
T1 construct: L2/434/Bu GFP intracellular growth in HeLa cells
Summary of the method: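 Imaging read-out: GFP inclusions and Hoechst nuclei captured by high-content imaging after fixation. Inclusion area/number = chlamydial growth; nuclei count = host cell viability. MIC calculated per earlier method.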

Structure (SMILES) | % of control remaining
COc1ccc(-c2noc(CNC(=O)Nc3ccc(F)cc3)n2)cc1OC [CBK269784] | 104.47
O=C(Nc1cccc(C(=O)O)c1)/C(=C\c1ccc2c(c1)OCO2)NC(=O)c1ccccc1Cl [CBK263746] | 104.68
CCCc1cc(=O)nc(N/C(=N\C(=O)c2ccccc2)Nc2ccc3c(c2)OCCO3)[nH]1 [CBK266485] | 78.829
CC(C)OC(=O)c1cccnc1N1CCN(CCCC(c2ccc(F)cc2)c2ccc(F)cc2)CC1 [CBK025340C] | 56.0986
CCn1c2c(c(=O)[nH]c1=O)C(c1ccccc1)C1=C(COC1=O)N2 (stereo not shown) [CBK287704] | 122.943
COc1ccc2c(c1)N1CCCN=C1N2C [CBK011358C] | 89.3426
COc1ccc([N+](=O)[O-])cc1COc1ccc2c(C(F)(F)F)cc(=O)oc2c1 [CBK265173] | 100.346
CC(Sc1nc(C2CC2)n(-c2ccccc2)n1)C(=O)N1CCNC1=O (stereo not shown) [CBK297144] | 83.0064
Cc1cc(-c2ccccc2)nc(SCC(=O)Nc2nnc(C)s2)n1 [CBK058194] | 93.4624
OC1(c2cccnc2F)CCN(Cc2c(F)cccc2F)CC1 [CBK283149] | 79.253
Cc1ccc(S(=O)(=O)NCC(=O)Nc2ccc(Cl)nc2)cc1 [CBK091355] | 95.1259
COc1ccc(C2C(C(C)=O)=C(O)C(=O)N2CCCC(=O)O)cc1 (stereo not shown) [CBK263774] | 103.152
CS(=O)(=O)N1CC2(CCN(CCCC#N)CC2)c2ccccc21 [CBK084014] | 97.662
O=c1[nH]c2ncc(-c3ccsc3)nc2n1CC1CCOCC1 [CBK064293] | 93.089
O=C(NC(NCc1ccco1)C(Cl)(Cl)Cl)c1ccc(Br)cc1 (stereo not shown) [CBK262174] | 85.7705
COCCNC(=O)c1cc(-c2ccc(Cl)cc2)cnc1NS(C)(=O)=O [CBK106421] | 114.685
COc1ccc(CCN2C(=O)c3ccccc3C2(O)c2ncc[nH]2)cc1OC (stereo not shown) [CBK262717] | 90.9688
CC(C)c1noc(N2CCC(Oc3ccc(-c4ccc(S(C)(=O)=O)cc4)cn3)CC2)n1 [CBK158821] | 39.7808
Cc1cccc(C(=O)Nc2ccccc2C(=O)N2CCN(C)CC2)c1 [CBK268565] | 86.7251
Cc1nn(C)c(Cl)c1S(=O)(=O)Nc1cccc(-c2nnn[nH]2)c1 [CBK062127] | 97.6733
O=C(Nc1cccc(F)c1)N(Cc1cccnc1)CC1CCCO1 (stereo not shown) [CBK304065] | 114.437
O=C(Nc1ccc(S(=O)(=O)Nc2nccs2)cc1)C1CC(=O)N(c2ccccc2)C1 (stereo not shown) [CBK264732] | 51.7441
Cc1cccc(OC(=O)C2C(c3ccccc3)C(C(=O)O)C2c2ccccc2)c1 (stereo not shown) [CBK263843] | 81.3779
CN1CCN(S(=O)(=O)c2ccc(-c3cc(C(F)(F)F)on3)s2)CC1 [CBK057780] | 116.686
COc1cc(Cl)cc(/C=N/Nc2nc(Nc3ccc(C)c(Cl)c3)nc(N3CCOCC3)n2)c1O [CBK262436] | 121.409

Structure (SMILES) | % of control remaining
CN(C)c1ccc(CCNS(=O)(=O)c2ccc3[nH]c(=O)[nH]c(=O)c3c2)cc1 [CBK285938] | 108.553
Cc1c(S(=O)(=O)Nc2cccc(C(=O)OCC3CCCN(C)C3)c2)sc2ccc(Cl)cc12 (stereo not shown) [CBK167735G] | 79.3859
Cc1noc(C)c1NC(=O)Cc1cccnc1 [CBK200391] | 84.9111
Cc1ccc(C(CC(=O)O)NC(=O)c2ccc(S(=O)(=O)N3CCCC(C)C3)cc2)cc1 (stereo not shown) [CBK295345] | 108.904
Cc1ccc(N2CC(c3nnc(N)o3)CC2=O)cc1 (stereo not shown) [CBK288061] | 94.9372
Cc1cc2c(cc3c(=O)n(CC(=O)N4CCCCCC4)nc(C)n32)o1 [CBK283591] | 48.9732
O=C(NC(=S)Nc1ccc(-c2nc3ncccc3o2)cc1)c1ccc2c(c1)OCCO2 [CBK265812] | 111.191
O[C@H]1[C@H](NCc2ccco2)[C@H]2CO[C@H](O2)[C@@H]1N1CCCCC1 [CBK288825] | 126.216
COCCn1cc(C(=O)N2CCCC2c2ccncc2)c2ccccc21 (stereo not shown) [CBK305286] | 61.2204
O=C(c1ccccc1NS(=O)(=O)c1ccc(C(F)(F)F)cc1[N+](=O)[O-])N1CCOCC1 [CBK043353] | 86.0409
O=C(C1CC2C=CC1C21CC1)N1CCC(Oc2ccccc2F)CC1 (stereo not shown) [CBK282179] | 99.349
CCOC(=O)CCCNC(=O)N1CCN(c2ccccc2)CC1 [CBK155209] | 105.361
O=C(O)/C=C/c1cccc(/C=C/C(=O)O)c1 [CBK261650] | 105.883
COc1ccc(CCNC(=O)CCn2cncn2)cc1 [CBK305881] | 86.2233
O=C1CC(SCc2nc3ccccc3[nH]2)C(=O)N1c1cccc(Cl)c1 (stereo not shown) [CBK266731] | 118.506
COc1ccc(-c2cc(=O)[nH]c(N3CCN(C)CC3)n2)cc1 [CBK003849] | 72.0871
COc1cc(-c2cncc(Nc3cccc(C(F)(F)F)c3)n2)cc(OC)c1OC [CBK065213] | 103.196
CC(=O)NC(CC(=O)N1CCc2sccc2C1C)c1ccc(C)cc1 (stereo not shown) [CBK305378] | 72.2523
O=[N+]([O-])c1ccc(Oc2ccccc2F)cc1 [CBK002532] | 92.7243
Cc1ccnc(N2C(=O)c3ccc(C(=O)c4ccc5c(c4)C(=O)N(c4cc(C)ccn4)C5=O)cc3C2=O)c1 [CBK263041] | 86.2703
O=S(=O)(Nc1cccc2[nH]ccc12)c1ccc(Br)cc1F [CBK153547] | 82.7135
O=C(N/N=C/c1ccccc1O)c1ccn(Cc2ccc(Cl)cc2)n1 [CBK262770] | 87.9594
O=C(N[C@H]1C2CCCCC2[C@@H]1c1ccccc1)c1cncnc1 (stereo partly shown) [CBK282949] | 96.1677
Cc1cc(S(=O)(=O)N2CCCC2)ccc1OCC(=O)NCc1ccncc1 [CBK269886] | 110.351
